Our source for the binding signal values is PMC12136788.

B1: chr1:154944474:154944574:-|3pUTR|ENSG00000163346|msi1_unk|FALSE|overlapping (ssRNA)
RNA: GGGAGUUCUACAGUCCGACGAUCUCGAGGCCCAGCACGAGGACUUACCCUGGGGUUUUGUUAGGUUUGGAAGCAGCUGUCCCUAGGGGGUGAAGUCCCCCCCCUUUUUUUUUUUACCCCUGCUUCUCCCACGGCUUCACCUCCCAACAGAGGAUUGAGCAUCA
B2: ENSG00000087586:stop:overlap|stop_codon|ENSG00000087586|stop_codon|NA|stop_codon (ssRNA)
RNA: GGGAGUUCUACAGUCCGACGAUCCAGCAAAUUCAUCAAAACCAUCAAAUUGCCAAAACAAAGAAUCAGCUAGCAAACAGUCUUAGGAAUCGUGCAGGGGGAGAAAUCCUUGAGCCAGGGCUGCCAUAUAACCUGACAGGAACACAACAGAGGAUUGAGCAUCA
B3: chr4:150908776:150908877:-|CDS|ENSG00000198589|msi1|total|mutant (ssRNA)
RNA: GGGAGUUCUACAGUCCGACGAUCGUUGAUUUGUACUCCGAUUCUCUUUGUGGCAUACUAUUUAACUGUUUUUAAUUAAUUCUCCGGGUACAUUUAAAUUCAAAGCAGAAAGCGACCUUUUCCUUGCUGAGCAUCACAAACUUUCAACAGAGGAUUGAGCAUCA
B4: chr19:15272971:15273072:-|CDS|ENSG00000141867|msi1|FALSE|unique (ssRNA)
RNA: GGGAGUUCUACAGUCCGACGAUCGUCUGCGGAGAGCGGCCCUGGGACGAGAUUGAGAAAUCUGCCAGUAAUGGGGGAUGGACUAGAAACUUCCCAAAUGUCUACAACACAGGCCCAGGCCCAACCCCAGCCAGCCAACGCAGCCAACAGAGGAUUGAGCAUCA
B5: chr9:132328913:132329014:-|CDS|ENSG00000107290|msi1|FALSE|bound_elsewhere (ssRNA)
RNA: GGGAGUUCUACAGUCCGACGAUCAGAACAAAAAUCUCAAAACAAUGUAUUGCCAAAAGAGAAACAAUUAAAGAAUGAAGAAUUAGUUAUUUUCUCUUUCCAUGAAAACAAUUGUAAAAUACAGGAAUUUCAUGUUGAUGGUAACAACAGAGGAUUGAGCAUCA
B6: chr3:15690066:15690176:-|CDS|ENSG00000206560|unk|FALSE|bound_elsewhere (ssRNA)
RNA: GGGAGUUCUACAGUCCGACGAUCAGUGUUGGUACAGUCUUUGUUAGAUCUUGAUGUCAGAAAUAGUAGUGGAAGAACACCCCUAGAUCUUGCAGCUUUUAAGGGCCAUGUUGAAUGUGUGGAUGUACUCAUUAAUCAGGGAGCCAACAGAGGAUUGAGCAUCA
B7: chr1:68475836:68475940:-|3pUTR|ENSG00000024526|unk|total|mutant (ssRNA)
RNA: GGGAGUUCUACAGUCCGACGAUCAUGCCCAGGGCCUAACUUACACUAAUUAAAUCUGAAUUUUGGGGAUGUUGUACCGGGAUCCGUAUUUUUUUUAAUCCCGGUGAUUCCAAUAUUCAGCCAACUGUGAGAAUCAAUGGCCUACAACAGAGGAUUGAGCAUCA
B8: chr5:132696315:132696416:-|3pUTR|ENSG00000131437|msi1|total|mutant (ssRNA)
RNA: GGGAGUUCUACAGUCCGACGAUCGUUGUACUACUACUCUUCAAUUGUACUGUGCAGGGAAGUUGGGGGAACAGUUCAUACUACCGAGAGUUACAGUUCCGAUGUAUGUGUAAAUCGAUCCGCUAUUUAUCCAACUACUGUAUACAACAGAGGAUUGAGCAUCA
B9: chr2:108783740:108783841:+|CDS_3pUTR|ENSG00000153201|msi1_unk|total|mutant (ssRNA)
RNA: GGGAGUUCUACAGUCCGACGAUCCAAUAAUUCUCAAUUUGUUAUAACACUGAAGAAAGCAGAACAUUUGGACUUUAAGCAUGCCGUAUUUGGGUUUGUUAAGGAUGGCAUGGAUACUGUGAAAAAGAUUGAAUCAUUUGGUUCCAACAGAGGAUUGAGCAUCA
B10: chr10:62094764:62094865:+|3pUTR|ENSG00000150347|msi1|FALSE|unique (ssRNA)
RNA: GGGAGUUCUACAGUCCGACGAUCGAUGAACUCCCCAACCCACUGUGCCCCUCCCGCAACACUACCAGUAGACUUUAGAACCAUAGUUAACUAAGUCUUUUACCUCUGAGAUACUUAAUUCUGGGAAAAUUGGUGACAAUUUUCCAACAGAGGAUUGAGCAUCA
B11: chr9:128583791:128583907:+|CDS|ENSG00000197694|unk|total|mutant (ssRNA)
RNA: GGGAGUUCUACAGUCCGACGAUCCAACCAGCAACAGCAAUUUAAUCGCAAUGUUGAGGAUAUUGAAUUGUGGCUAUAUGAAGCCGAAGGUCACUUGGCUUCGGAUGAUUACGGCAAAGAUCUUACCAAUGUGCAGAACCUCCACAACAGAGGAUUGAGCAUCA
B12: chr20:4853394:4853498:-|3pUTR|ENSG00000089057|unk|total|mutant (ssRNA)
RNA: GGGAGUUCUACAGUCCGACGAUCUAUGACCAUGAGCUAAGUUGUUAUUUCUUUCAUUCAUAUCCCUGCUGAAAUAUUGGUACCCGCAACUUAAAGUUGGCAAGUCUCAUCUUCAGUAAUACGGAUGCCAUGGGAGUGGCCAGGCAACAGAGGAUUGAGCAUCA
B13: chr20:13714314:13714426:-|3pUTR|ENSG00000089048|unk|FALSE|unique (ssRNA)
RNA: GGGAGUUCUACAGUCCGACGAUCUUUUUCUAGCCAUAAAGGAUGGAAGUCAAGAACUUUUUGUUGUUUAGUCAUGUUAAGUAUAGUUUAUGAAAUUAACUUGUAAAUAAAAGUGUAAAAUAUUUUCAUUAUUUUGUAUAGCACCAACAGAGGAUUGAGCAUCA
B14: chr9:132328913:132329014:-|CDS|ENSG00000107290|msi1|total|mutant (ssRNA)
RNA: B5 RNA with U83C, A84C
B15: ENSG00000198589:be:win_7251|CDS|ENSG00000198589|bound_else_gene|NA|bound_elsewhere_windowed (ssRNA)
RNA: GGGAGUUCUACAGUCCGACGAUCUGGCUAUAAACAGCAAGGACCAGAAGCUGUCCGAGCCCUCAAUGUGUUCUAUUACUUGACCUAUGAAGGAGCUGUCAAUCUGAAUUCAAUAACUGAUCCUGUGUUGAGAGAGGCUGUUGACAACAGAGGAUUGAGCAUCA
B16: chr16:58551611:58551719:-|CDS|ENSG00000125107|unk|total|mutant (ssRNA)
RNA: GGGAGUUCUACAGUCCGACGAUCCUGGCUCAGGCCCAGGCUCAGGCCCAGGUUCCAGCAAAAGCUCCUCUUGCUGGUCAAGUCCGCACUAUGGUAACCACCUCAACAACUACCACUGUUGCUAAAACGGUUACGGUCACCAGGCAACAGAGGAUUGAGCAUCA
B17: chr20:56369402:56369507:-|3pUTR|ENSG00000087586|unk|FALSE|unique (ssRNA)
RNA: GGGAGUUCUACAGUCCGACGAUCAGAAGAGGCCAUGUGUCUCAGAGCUGUUAAGGGCUUAUUUUUUUAAAACAUUGGAGUCAUAGCAUGUGUGUAAACUUUAAAUAUGCAAAUAAAUAAGUAUCUAUGUCUGUGUGGAGUGCUCAACAGAGGAUUGAGCAUCA
B18: chr22:46316300:46316401:+|CDS|ENSG00000075218|unk|FALSE|unique (ssRNA)
RNA: GGGAGUUCUACAGUCCGACGAUCGGCGGCCAGUGGCUGAACUCCAGUUGCGCUUGGUCAGAAUCUUCUCAAUUGAAUAAGACUAGAAGUAUCAGACGGCGAGAUUCCUGUCUAAAUUCCAAGACAAAGGUUAUGCCUACUCCUCAACAGAGGAUUGAGCAUCA
B19: chrX:53645320:53645442:-|CDS|ENSG00000086758|unk|FALSE|unique (ssRNA)
RNA: GGGAGUUCUACAGUCCGACGAUCUUAUUGGCUUCCUCUGAUAUGCAAGUGGUGCUGGCAGUCCUCAAUCUCCUAUAUGUAUUUAGCAAAAGAUCAAACUACAUCACUCGUCUGGGAUCUGACAAGAGGACCCCGCUGCUAACUCAACAGAGGAUUGAGCAUCA
B20: chr16:1487315:1487970:-|CDS|ENSG00000251692|control|control|control (ssRNA)
RNA: GGGAGUUCUACAGUCCGACGAUCGGGGGAGCUGGCGCAGCUCAAGGCCUGGGUGAGGAAGCUGCAGCGCCGAGGCCGGAAAGUAGACACGCGGCUGCGGGCCUUGGACCUCACCCUGGGCGAGAGGAGCCAGCAGCGGGCCCGCAACAGAGGAUUGAGCAUCA
B21: chr9:37126384:37126485:+|CDS|ENSG00000147905|unk|total|mutant (ssRNA)
RNA: GGGAGUUCUACAGUCCGACGAUCUAUCGAGAUGAGUCAUCCCGUGAACUGAGUGUUGACCGUGAGGUGGAAUUUCAACUCUACCGCCAAAUUCAUUAUGCCCAAGAUCUUGAUGAUGUCAUCAGGGAGGAAGAGCAUGAAGAACAACAGAGGAUUGAGCAUCA
B22: ENSG00000198589:be:win_7501|CDS|ENSG00000198589|bound_else_gene|NA|bound_elsewhere_windowed (ssRNA)
RNA: GGGAGUUCUACAGUCCGACGAUCCUCAAGUUUCCCUCCAACUCCCCUGUUACUCACGUGGCAGCCAACACCCAGCCUGGUUUGGCAACUCCCGCUGUGAUCACAGUCACUGCUAACAGGUUAUUUGCGGUGAACAAAUGGCACCAACAGAGGAUUGAGCAUCA

Where a chain is given by its changes, count along the chain named. This is one part of the list.

This assay has as its target MSI1 full-length (mouse, UniProt Q61474 1-362). The assay is described as follows: nsRBNS (natural sequence RNA bind-n-seq); RBNS binding buffer (assumed for nsRBNS): 25 mM Tris pH 7.5, 150 mM KCl, 3 mM MgCl2, 0.01% Triton X-100, 500 ug/ml BSA, 20 U/ml SUPERase-In, 4 C; UNK is unkempt and MSI1 is Musashi-1; names of the RNAs are library labels; protein concentration not given here; high values mean tight binding.
Chain of UniProt Q61474 (Q61474 whole entry): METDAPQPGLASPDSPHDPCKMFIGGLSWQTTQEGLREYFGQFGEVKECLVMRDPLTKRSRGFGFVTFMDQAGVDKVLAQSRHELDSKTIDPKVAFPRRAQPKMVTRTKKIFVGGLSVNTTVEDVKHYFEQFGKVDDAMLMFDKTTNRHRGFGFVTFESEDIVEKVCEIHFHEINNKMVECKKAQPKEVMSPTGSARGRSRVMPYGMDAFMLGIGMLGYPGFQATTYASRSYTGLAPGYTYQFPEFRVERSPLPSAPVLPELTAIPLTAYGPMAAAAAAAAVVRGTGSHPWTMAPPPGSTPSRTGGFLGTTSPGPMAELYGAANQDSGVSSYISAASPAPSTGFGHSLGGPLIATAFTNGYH
In the case of B1, the binding signal was found to be 0.866 enrichment R.
The molecule B2 came in with a binding signal of 0.352 enrichment R.
For B3 the value was 1.19 enrichment R; for B4, 0.477 enrichment R; for B5, 0.569 enrichment R.
The molecule B6 displayed a binding signal of 3.89 enrichment R.
In turn, B7 came in with a binding signal of 0.518 enrichment R.
Molecule B8 displayed a binding signal of 0.609 enrichment R.
Consider B9, for which the binding signal worked out at 0.437 enrichment R.
To B10 belongs 12.5 enrichment R; to B11, 0.336 enrichment R.
B12 had a binding signal of 0.255 enrichment R.
B13 came in with a binding signal of 58.4 enrichment R.
To B14 belongs 0.436 enrichment R; to B15, 0.339 enrichment R; to B16, 0.322 enrichment R.
B17 registered a binding signal of 0.371 enrichment R.
B18: the binding signal was 0.624 enrichment R.
On to B19, for which the binding signal came to 1.91 enrichment R.
For B20, the binding signal was determined as 0.446 enrichment R.
For the molecule B21, the binding signal was 0.245 enrichment R.
For B22 the value was 0.448 enrichment R.
